# Reference: the supplement of paper PMC3334620
# Whole data set: some 33,000 sequences, median “E-score (-0.5 to 0.5)” near -0.012, cut for the highest 2% near 0.29. This is one part of the list.
# Molecular target: T1, Ybr033w (UniProt P38073)
# T1 sequence: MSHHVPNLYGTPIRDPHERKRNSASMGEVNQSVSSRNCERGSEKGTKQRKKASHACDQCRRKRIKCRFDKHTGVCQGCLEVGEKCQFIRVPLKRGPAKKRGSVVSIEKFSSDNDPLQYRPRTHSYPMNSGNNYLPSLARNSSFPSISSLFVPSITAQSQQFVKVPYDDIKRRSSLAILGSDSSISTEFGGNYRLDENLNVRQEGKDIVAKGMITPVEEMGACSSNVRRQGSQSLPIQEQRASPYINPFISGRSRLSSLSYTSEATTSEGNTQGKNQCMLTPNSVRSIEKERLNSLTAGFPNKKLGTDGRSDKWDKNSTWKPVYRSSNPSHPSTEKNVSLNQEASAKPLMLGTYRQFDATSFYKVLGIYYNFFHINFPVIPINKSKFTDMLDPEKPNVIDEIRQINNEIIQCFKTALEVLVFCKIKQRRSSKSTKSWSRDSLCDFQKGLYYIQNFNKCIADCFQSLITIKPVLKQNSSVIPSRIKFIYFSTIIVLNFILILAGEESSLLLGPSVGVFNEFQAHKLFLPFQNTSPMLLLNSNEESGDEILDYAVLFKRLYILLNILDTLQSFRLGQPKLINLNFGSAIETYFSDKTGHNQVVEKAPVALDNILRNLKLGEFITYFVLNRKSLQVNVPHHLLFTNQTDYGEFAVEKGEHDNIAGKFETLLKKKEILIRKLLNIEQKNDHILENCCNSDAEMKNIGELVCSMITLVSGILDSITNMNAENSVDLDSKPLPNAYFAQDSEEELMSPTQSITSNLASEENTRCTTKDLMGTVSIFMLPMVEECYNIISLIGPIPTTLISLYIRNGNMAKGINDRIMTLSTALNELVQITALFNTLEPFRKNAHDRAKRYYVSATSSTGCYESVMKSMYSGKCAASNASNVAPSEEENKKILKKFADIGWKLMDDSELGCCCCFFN
# Assay: PBM E-score (8-mer binding enrichment) (E-score (-0.5 to 0.5)); higher = stronger / more preferred TF binding; most listed sequences are background and not binding sites
# Conditions: protein concentration: 200 nM; construct: GST-full length
# Procedure: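 Universal 'all 10-mer' protein binding microarrays (Agilent AMADID 015681) probed with GST-tagged S. cerevisiae TFs (full-length or DBD) made by in vitro transcription/translation (PURExpress), about 100-200 nM. Bound TF was detected with fluorescent anti-GST. Each ungapped 8-mer (which stands for itself and its reverse complement) is scored by the PBM enrichment score (E-score), a modified Wilcoxon-Mann-Whitney statistic from -0.5 to +0.5, computed with the Universal PBM Analysis Suite. Scale: above 0.35 generally sequence-specific binding.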
row,Sequence,PBM E-score
1,CAGTATGC,-0.0666
2,AGTGTAAA,0.0244
3,TATCTCGA,0.0179
4,GCCTCACC,-0.234
5,GGCTCGAC,-0.1
6,AAATCTAA,0.215
7,AGTTTTGA,0.123
8,ACTCCAAC,0.017
9,GCAGCAAA,-0.237
10,ACTCTAAT,0.233
11,GATCCTCC,-0.186
12,GGGATTGA,-0.148
13,CACGTGTC,-0.15
14,GGGCCCAA,-0.167
15,CGGGGGGC,-0.436
16,CTCGGCGA,-0.103
17,AAAGGAAA,0.303
18,ATGTAACA,0.226
19,GTGTTTCA,0.0694
20,AGGAAGGC,-0.17
21,GCTATAAC,0.0463
22,GCCTGAAC,-0.214
23,CTTCAGAA,-0.028
24,CCCTACGC,-0.166
25,CCCCACCC,0.0112

row,Sequence,PBM E-score
1,GGGCCACC,-0.197
2,CAATGTCC,-0.0195
3,ATCAGCCC,-0.027
4,CCATATTC,0.047
5,ACCTTCGG,-0.0682
6,AAGACAGG,0.149
7,ACCTCGAT,0.105
8,CTTTATGA,0.0552
9,GAGAGTCC,-0.228
10,AAAAGCGG,-0.0853
11,CCGCGAAG,-0.02
12,AATTGTAG,0.201
13,CGACGCCA,-0.218
14,AGTGTCCA,0.051
15,AGATCACG,0.105
16,GACAGTTA,0.0195
17,AGAACTGC,-0.133
18,TCCGCGAA,0.0702
19,ATCACGAA,0.106
20,TCACTAAA,0.164
21,CGACTAAA,-0.121
22,AGCACAGG,-0.111
23,AAATAAAG,0.281
24,CCAGGTGC,-0.087
25,AGGTCCCA,-0.162

row,Sequence,PBM E-score
1,AGTAGGTC,-0.2
2,CGGGGGAA,-0.164
3,AGTAGGAA,-0.0615
4,CAGGTCCG,-0.187
5,ACCTAGAC,-0.178
6,CCGGTCCA,-0.223
7,AGCTTAGG,0.0442
8,CTAGTTCC,0.0314
9,CTCCAAAC,0.134
10,CTCACCTA,0.0284
11,CACGTTTA,0.0437
12,GTGAACCA,0.207
13,TACTCCTA,0.00987
14,GGTGTGCA,-0.25
15,ACGTACAT,0.182
16,ATTGGTGG,0.113
17,GTCATAGA,0.0405
18,CCGTGAAG,-0.202
19,CTTTCTGC,-0.171
20,GTTCTTAA,0.0938
21,CATCGGTA,-0.154
22,CTTAATCC,0.152
23,GGGGTGAA,-0.00867
24,GCAGTCCC,-0.254
25,AGGACCCA,-0.303

row,Sequence,PBM E-score
1,GGCTACGA,-0.241
2,ACGCAGTC,-0.266
3,AATTGGAC,0.16
4,CCATGCGC,-0.215
5,AATGTACA,0.0635
6,CCTAGTAA,-0.0427
7,CATCATCC,0.0323
8,GGTGCACC,-0.253
9,CAGAATCA,0.0839
10,AACTATAG,0.104
11,CTCGACCA,-0.162
12,GCCGAATA,0.0333
13,GCACTTAA,0.016
14,AAACGGAT,0.188
15,ACCTGACT,0.194
16,CTTTCAAA,0.212
17,CCGTCTAC,0.0942
18,ATTGCTCG,0.132
19,CCGAGGCA,-0.128
20,CACGCCTC,-0.209
21,GAACTCGA,0.00673
22,AGAAAAGA,0.114
23,CACCAATG,0.0245
24,AGAGTCGG,-0.126
25,TCTACGCA,-0.0005

row,Sequence,PBM E-score
1,GGATGTGA,-0.0116
2,GCAACCGA,0.0135
3,AAAAATCT,0.267
4,TCTAAGCA,-0.00029
5,AATAGTGG,0.0387
6,GGAATTCC,-0.236
7,GAACCCGC,-0.242
8,AACGAGGA,-0.0379
9,CGGTCGGC,-0.299
10,AGAGTTAA,0.0474
11,AACTTGCC,0.0985
12,AACCCGTG,-0.329
13,CGAAGTTC,0.0291
14,ATAACCAA,0.195
15,CAAAATCC,0.109
16,AAGTCACG,-0.107
17,ATAATCCC,0.189
18,AGCCACAA,0.0758
19,CCGATGGA,-0.136
20,GAAGACAC,-0.172
21,CGTTTAAA,0.135
22,AATGCACG,0.0215
23,AGTTTAGC,-0.121
24,CAGTTTAC,0.0171
25,GACCTCGC,-0.156

row,Sequence,PBM E-score
1,AATAGCAA,0.147
2,ATTTCGAG,0.244
3,ATACGGAG,0.00026
4,CGTAGTAG,0.106
5,GCTTCTTA,0.141
6,CGTAGCGC,-0.0964
7,GAATCGCA,-0.0364
8,ATGCGTTA,-0.00863
9,ATTGGTAG,0.205
10,ATCCCGAC,0.0724
11,AAAAGCAA,0.22
12,GGTAAGTA,0.0633
13,GCCGTAGA,0.0238
14,ACCGATAC,0.0669
15,ACAAGACA,0.162
16,AGGGGCAG,-0.302
17,AGAATTAG,0.187
18,GTTTGTCA,0.0261
19,ATGCCTAC,-0.0813
20,CCTGACTA,0.0513
21,TGAAGCAA,-0.108
22,ATAATCTC,0.293
23,GGTCTTTA,0.0871
24,ATGCGAAC,0.0408
25,ATCGTTAG,0.147

row,Sequence,PBM E-score
1,AATCGAGA,0.0977
2,CATTTACG,0.0866
3,CCGCGCTC,-0.164
4,AACCTGCT,-0.0354
5,CCATCACG,-0.0178
6,AGACTTGG,-0.0522
7,ACACGACC,-0.177
8,GTAGTGCA,0.114
9,CTGTCAAC,-0.0711
10,GAACTGTA,0.193
11,CTGCTCAC,-0.143
12,CAAATAGG,0.00709
13,GGCATCAA,-0.0874
14,ACCTGCGA,-0.113
15,AACTAACT,0.126
16,ATAGTTCC,0.25
17,CCGGCCTC,-0.306
18,CATCTCGA,-0.0245
19,GCCGGTAA,0.0064
20,TCAAAAGA,0.167
21,CAAATTCG,0.164
22,GCAGAACC,-0.252
